Data published in PubChem BioAssay AID504333 (National Center for Advancing Translational Sciences (NCATS), 2011).
Out of some 360,000 compounds screened, about 16,000 (4.4%) were called active. Inconclusive results, whose numbers are uncertain, are shown with a selection of clear calls. Calls come from the whole dose curve; as a rule, active = well fitted inhibition curve with a large enough effect; inconclusive = small, poorly fitted or top-dose-only effect; inactive = no such curve, though single readings can be large or run the other way. A potency beside an inconclusive call is a rough fit, not a confirmed value.

These molecules were tested against Bromodomain adjacent to zinc finger domain protein 2B (Homo sapiens) (UniProt Q9UIF8) (assay: qHTS Assay for Inhibitors of BAZ2B). Settings: AlphaScreen BAZ2B-H3K14Ac peptide displacement; series mostly up to 114 µM.
UniProt Q9UIF8, sequence (Q9UIF8 whole entry, looked up, the tested form may be a part): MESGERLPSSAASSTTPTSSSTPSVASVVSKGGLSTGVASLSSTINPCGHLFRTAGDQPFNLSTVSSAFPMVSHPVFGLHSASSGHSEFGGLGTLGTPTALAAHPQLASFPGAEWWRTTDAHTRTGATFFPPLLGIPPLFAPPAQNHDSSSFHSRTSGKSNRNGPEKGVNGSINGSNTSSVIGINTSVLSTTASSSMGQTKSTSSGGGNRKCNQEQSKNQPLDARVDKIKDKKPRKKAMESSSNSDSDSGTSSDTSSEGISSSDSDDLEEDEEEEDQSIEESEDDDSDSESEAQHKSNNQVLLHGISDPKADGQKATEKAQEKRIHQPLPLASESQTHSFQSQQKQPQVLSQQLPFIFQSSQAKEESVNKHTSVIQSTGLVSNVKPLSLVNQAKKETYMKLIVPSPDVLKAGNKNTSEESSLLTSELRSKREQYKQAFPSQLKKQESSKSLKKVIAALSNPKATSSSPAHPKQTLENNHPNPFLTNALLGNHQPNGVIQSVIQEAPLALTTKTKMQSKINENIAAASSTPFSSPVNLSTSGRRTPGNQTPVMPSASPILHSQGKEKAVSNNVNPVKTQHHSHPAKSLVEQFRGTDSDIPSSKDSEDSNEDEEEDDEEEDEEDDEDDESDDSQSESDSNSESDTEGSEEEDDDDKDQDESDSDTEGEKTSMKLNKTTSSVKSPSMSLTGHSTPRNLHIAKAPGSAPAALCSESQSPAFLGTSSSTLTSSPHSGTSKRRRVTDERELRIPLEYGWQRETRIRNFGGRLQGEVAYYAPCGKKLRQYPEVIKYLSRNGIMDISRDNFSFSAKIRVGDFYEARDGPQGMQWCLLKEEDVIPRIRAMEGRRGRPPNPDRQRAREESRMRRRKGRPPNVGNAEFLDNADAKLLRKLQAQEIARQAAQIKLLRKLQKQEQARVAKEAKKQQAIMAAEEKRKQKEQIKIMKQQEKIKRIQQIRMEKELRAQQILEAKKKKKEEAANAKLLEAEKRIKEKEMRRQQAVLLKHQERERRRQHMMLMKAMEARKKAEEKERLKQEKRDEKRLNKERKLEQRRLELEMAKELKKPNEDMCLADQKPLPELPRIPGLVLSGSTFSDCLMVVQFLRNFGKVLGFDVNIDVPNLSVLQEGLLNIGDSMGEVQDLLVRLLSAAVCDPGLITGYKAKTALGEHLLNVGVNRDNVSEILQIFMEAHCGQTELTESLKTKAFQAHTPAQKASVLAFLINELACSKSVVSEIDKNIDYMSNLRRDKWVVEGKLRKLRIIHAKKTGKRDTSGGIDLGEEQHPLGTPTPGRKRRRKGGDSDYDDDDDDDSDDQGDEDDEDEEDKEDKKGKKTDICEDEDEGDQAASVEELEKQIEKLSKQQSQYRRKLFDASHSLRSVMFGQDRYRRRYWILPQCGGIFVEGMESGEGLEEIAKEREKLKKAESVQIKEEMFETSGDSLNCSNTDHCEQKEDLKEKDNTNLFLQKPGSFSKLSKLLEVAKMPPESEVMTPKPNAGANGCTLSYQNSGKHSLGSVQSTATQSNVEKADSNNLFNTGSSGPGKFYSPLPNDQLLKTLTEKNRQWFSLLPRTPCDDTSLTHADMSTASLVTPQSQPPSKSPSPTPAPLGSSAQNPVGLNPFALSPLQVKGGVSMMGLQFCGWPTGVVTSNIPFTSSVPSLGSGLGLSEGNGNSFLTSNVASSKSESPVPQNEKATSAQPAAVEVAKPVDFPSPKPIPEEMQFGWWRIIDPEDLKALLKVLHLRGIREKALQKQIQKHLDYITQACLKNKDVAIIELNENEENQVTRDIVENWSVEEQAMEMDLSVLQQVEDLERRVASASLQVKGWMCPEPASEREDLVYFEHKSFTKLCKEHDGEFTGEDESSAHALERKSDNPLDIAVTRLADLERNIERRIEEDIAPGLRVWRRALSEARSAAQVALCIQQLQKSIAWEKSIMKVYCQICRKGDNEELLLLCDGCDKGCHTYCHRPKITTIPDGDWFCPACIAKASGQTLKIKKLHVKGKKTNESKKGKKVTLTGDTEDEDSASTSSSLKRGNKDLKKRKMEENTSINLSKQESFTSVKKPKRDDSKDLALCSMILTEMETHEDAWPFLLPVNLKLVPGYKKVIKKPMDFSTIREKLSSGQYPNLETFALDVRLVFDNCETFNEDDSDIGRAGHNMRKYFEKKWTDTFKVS
How it was run: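 In this displacement format the biotinylated H3(5-23) peptide acetylated at Lys14 serves as ligand at 50 nM, with BAZ2B at 50 nM in PBS pH 7.4 containing 0.01% Tween-20. Donor and acceptor beads are 10 ug/mL final.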
Note: nearly all actives have a fitted effect of over 60% in size.
Potency is the fitted concentration of half-maximal effect; tags give direction and shape of the fitted curve.

Structure (SMILES)	Potency
O=C(CCN1C(=O)/C(=C/c2ccc(Cl)cc2)SC1=S)NCCCn1ccnc1	active: 39.8 µM
C=CCn1c(C)cc(C(=O)COC(=O)C2CC(=O)N(Cc3ccccc3)C2)c1C (centres undefined)	inconclusive: 89.1 µM [inhibitor, single point]
Cc1cccc2c(=O)oc(-c3ccccc3Cl)nc12	inactive
CN(C(=S)Nc1ccc(Oc2ccccc2)cc1)C1CCCCC1	inconclusive: 39.8 µM [inhibitor, partial curve]
Cc1ccc(/C(O)=C2/C(=O)C(=O)N(CC(=O)O)C2c2ccc([N+](=O)[O-])cc2)cc1 (centres undefined)	inconclusive: 89.1 µM [inhibitor, single point]
CC1CCCC(NC(=O)CN(C)S(=O)(=O)c2cccc3cccnc23)C1C (centres undefined)	inactive
O=C(O)Cn1cc(/C=C/[N+](=O)[O-])c2ccccc21	inactive
CCSc1ncc(Cl)c(C(=O)N(Cc2ccc(C(C)(C)C)cc2)C2CCS(=O)(=O)C2)n1 (centres undefined)	inactive
CC(=O)Nc1ccc(S(=O)(=O)NCc2ccncc2)cc1	inconclusive: 89.1 µM [inhibitor, single point]
CC(=O)Nc1sc(N/N=C\c2ccccc2)nc1-c1cccs1	inconclusive: 44.7 µM [inhibitor, partial curve]
CCOn1c(=O)c(=O)n(O)c2ccccc21	inconclusive: 20 µM [inhibitor, full curve]
CC1(c2ccc3noc(-c4ccc(F)cc4)c3c2)OCCO1	inconclusive: 6.31 µM [inhibitor, single point]
O=C(NNC(=S)NCc1ccco1)c1ccc(S(=O)(=O)N2CCOCC2)cc1	inconclusive: 79.4 µM [inhibitor, single point]
Cc1cc(C)cc(NC(=S)Nc2cccc3cnccc23)c1	inconclusive: 44.7 µM [inhibitor, partial curve]
Nc1nnc(SCC(=O)c2ccc([N+](=O)[O-])cc2)s1	inactive
CC1(C)Cc2ccccc2C(N/N=C/c2ccc([N+](=O)[O-])cc2)=N1	inconclusive: 89.1 µM [inhibitor, partial curve]
CCCOc1cc(CC(=O)NCc2ccco2)ccc1OC	inactive
O=C(CCC(=O)N(CC(=O)NC1CCCC1)C1CCCCC1)Nc1ccccn1	inactive
Cc1[nH]n(C(N)=S)c(=O)c1N=Nc1cccc([N+](=O)[O-])c1C	inconclusive: 39.8 µM [inhibitor, partial curve]
C[n+]1ccccc1/C=C/c1ccccc1Cl	active: 56.2 µM
CN1CCN(C(=S)c2cn(Cc3ccccc3)c3ccccc23)CC1	inconclusive: 44.7 µM [inhibitor, partial curve]
O=C(c1cccs1)N1CCCc2cc(NS(=O)(=O)c3ccc(Br)cc3)ccc21	inactive
CCN1CCCC1CNC(=O)c1cc2c(-c3ccc(Cl)cc3)nn(C)c2s1 (centres undefined)	inactive
O=C(Nc1cccnc1)c1cc2cc(Br)ccc2oc1=O	active: 79.4 µM
CC1Cc2ccccc2N1C(=O)CSc1ncccc1C(=O)O (centres undefined)	inactive
COc1cc(NC(=O)CSc2nnc3c(C)cc4c(C)ccc(C)c4n23)c(C(=O)O)cc1OC	inactive
CCOC(=O)CNC(=O)c1c2c(nc3ccccc13)CCCC2	inactive

Structure (SMILES)	Potency
N#Cc1c(SCC(=O)Nc2nncs2)sc2c(O)cc(=O)[nH]c12	active: 10 µM
C=CCn1c(SCC(=O)c2ccc(O)c(O)c2)nnc1-c1ccc(C)cc1	inconclusive: 56.2 µM [inhibitor, partial curve]
Cc1c(C(=O)NC(=S)Nc2cccnc2)cccc1[N+](=O)[O-]	inconclusive: 89.1 µM [inhibitor, single point]
CCOC(=O)c1c(S(=O)(=O)NCC(=O)Nc2cccc(SC)c2)c(C)n(C)c1C	inactive
COc1ccccc1NCc1nnc(SCC(=O)N/N=C/c2ccco2)n1-c1ccc(Cl)cc1Cl	inconclusive: 44.7 µM [inhibitor, partial curve]
CCOC(=O)C1=C(C)N=c2s/c(=C/c3ccco3)c(=O)n2C1c1cccc(OC)c1 (centres undefined)	active: 10 µM
O=C(/C=C/c1ccco1)Nc1ccc(C(=O)N2CCOCC2)cc1	inconclusive: 89.1 µM [inhibitor, single point]
O=[N+]([O-])c1cc(Br)cc(/C=N/n2cnnc2)c1O	inconclusive: 50.1 µM [inhibitor, partial curve]
Cc1c(C)n(C)c2ccc(C(=O)NCCCN3CCCC3)cc12	inconclusive: 79.4 µM [inhibitor, partial curve]
Cn1c(SCC(=O)N2CCOCC2)ncc(C(=O)Nc2ccc(F)cc2)c1=O	inactive
S=C(NCCCN1CCOCC1)NC1CCCC1	inactive
O=C1/C(=C/c2cccs2)SC(=S)N1N1CCOCC1	inconclusive: 7.94 µM [inhibitor, full curve, poor fit]
O=C(COC(=O)c1ccccc1)NCc1ccco1	active: 50.1 µM
CCN1C(=O)[C@@H]2[C@@H](c3ccc(-c4cccc(Cl)c4)cc3)N3CCC[C@@]3(C(=O)OC)[C@@H]2C1=O	inconclusive: 50.1 µM [inhibitor, partial curve]
N#CC1=C(N)N(c2ccc(Cl)cc2)C2=C(C(=O)CCC2)C1c1cc(CN2CCOCC2)cs1 (centres undefined)	inconclusive: 89.1 µM [inhibitor, partial curve]
Oc1ccc(C(=S)N2CCN(Cc3ccccc3)CC2)cc1	inactive
COc1ccc(-c2csc(N(CCCN(C)C)C(=O)c3cc(OC)c(OC)c(OC)c3)n2)cc1	inconclusive: 22.4 µM [inhibitor, full curve]
CCc1cccc(NC(=O)Cn2c(=O)n(CC3CCC(C(=O)NC)CC3)c(=O)c3sccc32)c1 (centres undefined)	inactive
Cc1ccc(N/C=C(/C#N)c2ccsc2)cc1	inconclusive: 31.6 µM [inhibitor, full curve, poor fit]
CCCC(=O)c1ccc(O)cc1O	inactive
CC1CCCCN1CCCNC(=O)c1ccc(N2CCCC2=O)cc1 (centres undefined)	inactive
CN1CC(=O)NC1=NC(=O)c1cc(F)c(F)cc1Cl	inconclusive: 89.1 µM [inhibitor, single point]
CCOC(=O)C(C(=O)OCC)C(C)(C)/C(C)=N\Nc1ccc([N+](=O)[O-])cc1[N+](=O)[O-]	active: 10 µM
S=C(N/N=C/c1ccccc1)N1CCOCC1	inconclusive: 22.4 µM [inhibitor, full curve, poor fit]
Cn1c(C(=O)NCc2ccccc2Cl)cc2sc(Cl)cc21	inactive
CN(CCCNC(=O)CCC(=O)N1CCOc2ccccc21)Cc1ccccc1	inactive
CCC(=O)NC1=C(NC(C)c2ccccc2)C(=O)c2ccccc2C1=O (centres undefined)	inconclusive: 63.1 µM [inhibitor, partial curve, poor fit]

Structure (SMILES)	Potency
c1ccc2nc3c(cc2c1)CCCCC3	inactive
Cc1ccc(CNC(=O)COc2ccc(S(=O)(=O)N3CCOCC3)cc2)cc1	inactive
CCn1cc(CN2CCCC(CNC(=O)COc3ccccc3OC)C2)c(C)n1 (centres undefined)	inactive
O=C(c1cc(-c2ccco2)on1)N1CCc2ccccc2C1	active: 25.1 µM
COc1ccccc1CNC(=O)COC(=O)c1cc(-c2ccco2)nc2ccccc12	active: 39.8 µM
COC(=O)c1ccc(CSc2nc3ccccc3c(=O)n2Cc2ccco2)o1	inactive
c1ccc(COc2ccccc2CNC23CC4CC(CC(C4)C2)C3)cc1	inactive
C=CCNC(=O)COc1coc(CN2CCN(C(=O)c3ccco3)CC2)cc1=O	inconclusive: 89.1 µM [inhibitor, single point]
COc1cc(-c2noc(-c3cc4cccc(C)c4oc3=O)n2)cc(OC)c1OC	inconclusive: 89.1 µM [inhibitor, single point]
CCOc1ccc(CCNC(=O)C2CCN(C(=O)N(C)C)CC2)cc1OCC	inactive
CCOCCCN(C(=O)CCC(=O)Nc1cc(C)on1)C(C(=O)NC(C)(C)C)c1ccccc1Cl (centres undefined)	inactive
CCCN(CCC)Cc1c(C(=O)N/N=C/C(C)=C\c2ccco2)nnn1-c1nonc1N	inconclusive: 50.1 µM [inhibitor, partial curve]
O=C(Nc1ccccc1)C1=C(O)CC(c2ccco2)CC1=Nc1ccccc1 (centres undefined)	inconclusive: 89.1 µM [inhibitor, single point]
O=C(c1ccccc1)c1nn(-c2ccccc2)c(=O)cc1C(F)(F)F	active: 89.1 µM
CN(C)c1ccc(/C=C2\CCCc3c2nc2ccccc2c3C(=O)O)cc1	inactive
COc1ccc(-c2cn3cccnc3n2)cc1NC(=O)c1ccccc1C(F)(F)F	inactive
CC1(c2nnc(Cc3ccccc3)o2)CC(c2ccc([N+](=O)[O-])cc2)=NO1 (centres undefined)	inconclusive: 50.1 µM [inhibitor, partial curve]
O=C1/C(=C/N(C(=O)c2ccco2)c2ccc(Br)cc2)Sc2ccccc21	inconclusive: 44.7 µM [inhibitor, partial curve]
CCN(CC)S(=O)(=O)c1ccc(C(=O)NC(=S)N(CCC#N)Cc2cccnc2)cc1	inactive
O=Nc1c(O)n(Cc2ccc(Cl)cc2Cl)c2ccccc12	active: 44.7 µM
CCS(=O)(=O)N1Cc2ccccc2CC1C(=O)N1CCN(c2ccccc2)CC1 (centres undefined)	active: 50.1 µM
COc1cc(C2=NOC(C(=O)NCc3ccco3)C2)cc(OC)c1OC (centres undefined)	inconclusive: 100 µM [inhibitor, partial curve]
CCc1cccc(OCCCCNCCCOC)c1	inconclusive: 89.1 µM [inhibitor, single point]
CO/N=C1\CCCc2c(C(=O)NN)sc(SC)c21	inactive
C(=N\Nc1nc(-c2ccccn2)nc2ccccc12)/c1ccccc1	active: 50.1 µM
